# Laboratory results from PMC4336329 (PLoS ONE, 2015).
# Screen size: about 310,000 compounds; about 2,200 (0.71%) showed an effect of 50% or more. The effect is printed as a negative number. The list shows a part of the results.
# Target: human ether-à-go-go-related gene (hERG) potassium channel (human, UniProt Q12809)
# Assay: primary screen, population patch clamp on CHO cells stably expressing hERG
# Sequence of human ether-à-go-go-related gene (hERG) potassium channel (Q12809 whole entry, looked up): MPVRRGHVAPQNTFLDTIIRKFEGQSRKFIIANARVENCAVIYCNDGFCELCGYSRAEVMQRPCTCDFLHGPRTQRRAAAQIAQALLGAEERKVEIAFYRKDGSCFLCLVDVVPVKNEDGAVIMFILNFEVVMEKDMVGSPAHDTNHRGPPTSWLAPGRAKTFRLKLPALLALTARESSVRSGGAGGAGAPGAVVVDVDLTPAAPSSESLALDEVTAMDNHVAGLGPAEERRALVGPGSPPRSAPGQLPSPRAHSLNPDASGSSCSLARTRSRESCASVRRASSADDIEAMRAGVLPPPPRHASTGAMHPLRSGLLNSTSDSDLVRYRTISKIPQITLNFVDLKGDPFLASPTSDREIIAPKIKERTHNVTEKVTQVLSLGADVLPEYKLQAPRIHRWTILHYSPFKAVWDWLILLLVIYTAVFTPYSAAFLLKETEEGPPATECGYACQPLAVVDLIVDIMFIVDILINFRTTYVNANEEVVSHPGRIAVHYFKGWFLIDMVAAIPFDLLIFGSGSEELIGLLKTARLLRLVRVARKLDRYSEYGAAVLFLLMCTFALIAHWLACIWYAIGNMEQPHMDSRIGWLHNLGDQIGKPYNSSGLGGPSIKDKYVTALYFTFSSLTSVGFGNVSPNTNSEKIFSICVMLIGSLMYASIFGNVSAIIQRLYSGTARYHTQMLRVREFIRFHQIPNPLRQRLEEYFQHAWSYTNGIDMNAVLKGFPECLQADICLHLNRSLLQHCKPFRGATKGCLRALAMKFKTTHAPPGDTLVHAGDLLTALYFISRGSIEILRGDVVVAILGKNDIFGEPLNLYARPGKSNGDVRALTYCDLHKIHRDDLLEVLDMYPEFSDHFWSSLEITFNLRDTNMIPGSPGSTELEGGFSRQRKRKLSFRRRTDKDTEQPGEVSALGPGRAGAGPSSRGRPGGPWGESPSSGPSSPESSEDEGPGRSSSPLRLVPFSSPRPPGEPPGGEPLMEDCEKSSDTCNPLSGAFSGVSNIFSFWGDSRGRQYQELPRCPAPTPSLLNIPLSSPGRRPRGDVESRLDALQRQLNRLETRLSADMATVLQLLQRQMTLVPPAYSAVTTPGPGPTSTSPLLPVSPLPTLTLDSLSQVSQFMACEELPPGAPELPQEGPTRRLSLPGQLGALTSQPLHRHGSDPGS
row,Compound,"hERG current change (%, negative = inhibition) at 1uM [%]"
1,Cc1cc(SCC(=O)c2ccc3c(c2)OCO3)nc2ccccc12,2.06
2,O=C(Nc1ccc(CN2CCOCC2)cc1)c1ccc(Br)o1,15.2
3,O=C(NCc1cccnc1)c1ccc2c(c1)C(=O)N(Cc1ccccc1)C2=O,4.43
4,CN(C)CCCN(C(=O)C1COc2ccccc2O1)c1nc2ccc(F)cc2s1.Cl (centres unmarked),-64.9
5,COC(=O)c1ccc(CSc2ccccc2C)o1,11.1
6,CCOC(=O)N1CCC(=NNS(=O)(=O)c2cccc([N+](=O)[O-])c2)CC1,-0.925
7,COc1ccc(C2(CCN=Cc3ccc(N(C)C)cc3)CCOC(C)(C)C2)cc1 (centres unmarked),6.8
8,Fc1cccc(NCc2cn3ccccc3n2)c1,14.3
9,CCOC(=O)C1=C(N)OC2=C(C(=O)CCC2)C12C(=O)N(CC(N)=O)c1ccccc12 (centres unmarked),2.29
10,CCOC(=O)N1CCN(C(=O)c2ccc3c(=O)n(Cc4ccccc4OC)c(=S)[nH]c3c2)CC1,1.54
11,Cc1ccc(S(=O)(=O)NCCC(=O)N2CCCCCCC2)cc1,22.3
12,O=C(COC(=O)CCC(=O)c1ccc(F)cc1)Nc1cccc(S(=O)(=O)N2CCOCC2)c1,2.32
13,COc1ccc(NC(=O)CSc2ccc(-c3cccnc3)nn2)c(OC)c1,4.16
14,COc1ccc(CCC(=O)N2CCN(S(=O)(=O)c3ccc(C)cc3)CC2)cc1,12.5
15,O=C(O)c1ccc(S(=O)(=O)c2ccc3c(c2)C(=O)N(c2ccc(Br)cc2)C3=O)cc1,10.5
16,CCC1(C)Cc2c(sc3c2c(=O)n(C)c2nnc(SCc4ccc5c(c4)OCO5)n32)CO1 (centres unmarked),-5.58
17,CC1CC(C)CN(C(=O)CN(C)S(=O)(=O)c2ccc3c(c2)c(=O)n(C)c(=O)n3C)C1 (centres unmarked),10.2
18,Cc1ccc([N+](=O)[O-])cc1NC(=S)NC(=O)c1cccnc1,11.7
19,O=C(Cn1[nH]c(=O)c2ccccc2c1=O)OCC(=O)c1ccccc1Cl,5.42
20,COc1cc(C(=O)Oc2cccc(C=O)c2)cc(OC)c1OC,7.86
21,Cc1ccc(NC(=O)CC(C)CC2=NS(=O)(=O)c3ccccc3N2)cc1 (centres unmarked),13.3
22,COc1ccc(Nc2ncnc3ccc(Br)cc23)c(OC)c1,8.53

row,Compound,"hERG current change (%, negative = inhibition) at 1uM [%]"
1,COc1ccc(N2CCN(c3oc(Cc4ccccc4)nc3C#N)CC2)cc1,-0.894
2,CC1(C)NC(=O)N(CC(=O)Nc2cc(C(F)(F)F)cc(C(F)(F)F)c2)C1=O,4.4
3,CC(=O)Oc1c(C)cc(O)c2ccccc12,6.23
4,Cc1c(C(=O)OC(C)CCN(C)C)oc2ccccc12.Cl (centres unmarked),-7.08
5,O=C(CSc1nc2ccccc2o1)NCc1ccc2c(c1)OCO2,8.19
6,CCNC(=O)c1cc(S(=O)(=O)N(C)C)c(Cl)cc1Cl,9.56
7,CC(C)c1ccc(NC(=O)CNC(=O)Cn2cnc3ccccc3c2=O)cc1,2.29
8,O=C(CCCc1ccccc1)NCCCc1ccccc1,12.2
9,CCc1cc2ccc(C)cc2nc1SCC(=O)NC1CCCC1,9.55
10,CCOC(=O)C1CCN(C(=O)COc2ccc(Br)cc2C)CC1,23
11,CCOc1ccc(NC(=O)CC2C(=O)N(c3ccc(OCC)cc3)C(=S)N2C2CC2)cc1 (centres unmarked),13.1
12,COc1ccc(Cc2nc3ccc(C(=O)NCCc4ccncc4)cc3o2)cc1OC,17.1
13,COc1ccc(OC)c(CCNC(=O)CN2C(=O)CCSc3ccccc32)c1,7.97
14,Cl.N=c1n(CCCOc2ccccc2Cl)c2ccccc2n1CC(N)=O,6.27
15,O=c1[nH]c2cc(NCCO)c([N+](=O)[O-])cc2[nH]1,16.1
16,CCc1cccc(NC(=O)C2CCN(S(=O)(=O)c3c(C)noc3C)CC2)c1,5.57
17,Cn1cccc1C(=O)NNC(=O)COc1ccc(Br)cc1,11.5
18,Cc1ccc2cccc(N)c2n1,9.61
19,CCC1(C)Cc2ccccc2-c2nc3n(c(=O)c21)CCCCC3 (centres unmarked),-1.54
20,CCOC(=O)N1CCN(C(=O)CCCOc2ccccc2)CC1,10.3
21,CCN(C(=O)COC(=O)c1ccccc1Cc1ccccc1)C1CCS(=O)(=O)C1 (centres unmarked),8.56
22,CCOC(=O)C(NC(=O)CC)(Nc1nc2c(s1)CCCC2)C(F)(F)F (centres unmarked),-2.3
